Reference: publication PMC4336329 (PLoS ONE, 2015)
The whole screen tested about 310,000 compounds, of which about 2,200 (0.71%) showed an effect of 50% or more. Effects have a minus sign here. The list shows a part of the results.

Biological target: human ether-à-go-go-related gene (hERG) potassium channel (human, UniProt Q12809)
Assay: primary screen, population patch clamp on CHO cells stably expressing hERG

Chain of human ether-à-go-go-related gene (hERG) potassium channel (Q12809 whole entry, looked up): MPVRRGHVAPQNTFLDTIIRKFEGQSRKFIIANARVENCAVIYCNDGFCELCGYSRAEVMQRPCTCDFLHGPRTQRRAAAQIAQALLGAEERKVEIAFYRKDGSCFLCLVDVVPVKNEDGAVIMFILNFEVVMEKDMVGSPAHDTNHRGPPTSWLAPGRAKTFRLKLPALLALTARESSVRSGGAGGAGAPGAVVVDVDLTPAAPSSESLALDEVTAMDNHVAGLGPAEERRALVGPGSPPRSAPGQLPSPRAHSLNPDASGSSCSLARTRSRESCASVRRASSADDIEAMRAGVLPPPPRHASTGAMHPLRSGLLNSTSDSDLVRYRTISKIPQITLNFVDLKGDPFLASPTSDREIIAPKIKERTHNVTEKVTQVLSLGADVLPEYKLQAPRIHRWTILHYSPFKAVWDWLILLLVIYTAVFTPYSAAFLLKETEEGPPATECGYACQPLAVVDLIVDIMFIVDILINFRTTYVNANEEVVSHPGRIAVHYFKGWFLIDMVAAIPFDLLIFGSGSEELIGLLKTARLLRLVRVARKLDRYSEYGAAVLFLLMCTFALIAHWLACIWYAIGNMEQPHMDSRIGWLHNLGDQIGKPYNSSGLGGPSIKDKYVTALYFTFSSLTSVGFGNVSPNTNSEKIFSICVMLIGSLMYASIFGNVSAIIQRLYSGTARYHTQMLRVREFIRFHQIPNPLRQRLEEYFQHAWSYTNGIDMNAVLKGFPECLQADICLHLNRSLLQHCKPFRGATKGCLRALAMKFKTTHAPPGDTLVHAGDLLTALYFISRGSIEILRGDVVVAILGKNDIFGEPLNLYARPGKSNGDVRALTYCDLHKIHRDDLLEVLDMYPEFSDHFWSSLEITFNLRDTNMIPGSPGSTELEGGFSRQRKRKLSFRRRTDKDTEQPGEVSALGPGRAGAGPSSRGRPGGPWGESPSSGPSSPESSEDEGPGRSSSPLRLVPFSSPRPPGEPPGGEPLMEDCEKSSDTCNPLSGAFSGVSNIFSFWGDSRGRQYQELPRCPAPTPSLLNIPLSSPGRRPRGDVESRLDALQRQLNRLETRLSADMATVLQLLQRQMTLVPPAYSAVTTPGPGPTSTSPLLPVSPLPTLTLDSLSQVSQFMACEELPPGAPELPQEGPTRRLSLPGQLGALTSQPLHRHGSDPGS

Compound	hERG current change (%, negative = inhibition) at 1uM [%]
O=C(COC(=O)c1ccc2c(c1)OCCO2)Nc1cc(S(=O)(=O)N2CCOCC2)ccc1Cl	15.4
CC(=O)c1cccc(S(=O)(=O)N2CCCC(c3nc4c(nnn4Cc4cccc(Cl)c4)c(=O)[nH]3)C2)c1 (centres unmarked)	10.7
N#CC(=C1CCCC1)c1nc(-c2ccc(Cl)cc2)cs1	15.2
Cc1cccc(Nc2ccccc2C(=O)NCc2ccco2)c1C	11.4
O=C(Nc1nnc(SCc2ccccn2)s1)C1CC(=O)N(c2ccccc2)C1 (centres unmarked)	11.1
COc1ccc(C(=O)CC(=O)C(=O)Nc2c(C)cccc2C)cc1	25.8
Cc1ccc(-n2nc3ccc(NC(=O)/C=C/c4ccco4)cc3n2)cc1C	-1.52
Cc1nc2scc(C)n2c(=O)c1S(=O)(=O)Nc1ccc(N2CCN(S(C)(=O)=O)CC2)cc1	14.1
CCC(=O)Nc1cccc(-c2csc(-c3ccccc3)n2)c1	6.15
O=C(CNC(=O)Cc1ccccc1)N=Nc1c(O)[nH]c2ccc(Br)cc12	20
O=C(CSc1ncnc2ccccc12)Nc1cccc(S(=O)(=O)N2CCCC2)c1	5.96
Cc1ccc2cc(C(c3nnnn3Cc3ccccc3)N3CCc4ccccc43)c(=O)[nH]c2c1C (centres unmarked)	2.32
CN(C)C(CNc1ccc([N+](=O)[O-])cc1C#N)c1ccccc1 (centres unmarked)	-7.71
Cc1ccccc1S(=O)(=O)NC1OC(=O)C(Oc2ccccc2)=C1Br (centres unmarked)	12.4
CC(C)OC(=O)CSc1nnc(-c2cnccn2)n1Cc1ccco1	1.41
Cc1cc(C)n(-c2nnc(N3CCN(c4ccc(F)cc4)CC3)nn2)n1	5.81
Nc1cc(Cl)ccc1C(=O)OCC(=O)N1CCCC1	10.1
C=CCn1c(SCC(=O)C23CC4CC(CC(C4)C2)C3)nc(O)cc1=O	13.6
CCOP(=O)(c1ccccc1)c1nc(-c2ccccc2Cl)oc1N1CCCCC1 (centres unmarked)	0.969
CC(OC(=O)Cn1[nH]c(=O)c2ccccc2c1=O)C(=O)Nc1ccc(F)cc1Cl (centres unmarked)	20.1
Cc1ccc(NNc2c(C)nc3ccccc3nc2=O)cc1	15.2
CCC(=O)c1ccc(OCc2ccc(C(=O)OC)cc2)cc1	-1.58

Compound	hERG current change (%, negative = inhibition) at 1uM [%]
Br.CN(C)c1nc(=Nc2cccc(Cl)c2)ss1	13.3
CCCCc1ccc(-c2ccc(Br)cc2)nc1	9.99
Clc1ccc(C2=C3CCCCn4c(-c5ccccc5)c[n+](c43)C2)cc1.[Br-]	-83.1
NC(=O)c1ccc(SCC(=O)OCC(=O)NCc2cccs2)c([N+](=O)[O-])c1	6.83
C=CCNc1sc(C(=O)c2cccs2)c(N)c1C#N	22.3
Cc1cc(C)n2nc(SCC(=O)NCc3ccco3)nc2n1	11
O=C(CSc1nccc(=O)[nH]1)NC1CCCC1	16.7
CCOc1cc(C(=O)N(CC)CC(=O)Nc2ccc3c(c2)OCCO3)ccc1OC	13.9
Oc1c(Cl)cc(Cl)cc1/C=N/c1nc(-c2ccc(Cl)cc2)cs1	12.2
O=C(CN1C(=O)c2ccc(Br)cc2C1=O)NCC1CCCO1 (centres unmarked)	-0.491
COc1nc(Nc2cccc(C)c2)nc(N2CCCCC2)n1	-2.96
CCC(Cc1ccccc1)NC(=O)C1CCC(CNc2c(N3CCCC3)c(=O)c2=O)CC1 (centres unmarked)	10.3
CS(=O)(=O)N1CCC(C(=O)Nc2cc(Cl)ccc2Cl)CC1	5.11
Br.CCCCn1c(=N)n(CC(=O)c2ccco2)c2ccccc21	-4.58
CCOc1ccc(NC(=O)c2ccc(OCC3CCCO3)cc2)cc1S(=O)(=O)N(CC)CC (centres unmarked)	9.78
Cc1c(NC(=S)NC(=O)c2ccccc2Br)c(=O)n(-c2ccccc2)n1C	9.86
Cc1ccc(C(=O)N(CC(=O)Nc2sc(C)c(C)c2C(N)=O)C2CCCC2)cc1	11.9
CCN(CC(=O)NCc1cccs1)C(=O)c1ccc(OC)c(S(=O)(=O)N2CCOCC2)c1	-1.94
CCOC(=O)[C@H]1[C@H]2COc3ccc(Cl)cc3[C@@H]2N2C(=O)CN(Cc3ccc(Cl)cc3)C(=O)[C@@]12C	14.4
Cc1cc(N/N=C/c2cccc(Br)c2)nc2ccccc12	12.8
O=C(O)C(C(O)c1ccc([N+](=O)[O-])cc1)[n+]1ccccc1.[Br-] (centres unmarked)	18.1
COc1ccc(CSc2nnc(N)s2)cc1F	-3.27
